{
  "source": "PubChem BioAssay AID624417",
  "about": "(National Center for Advancing Translational Sciences (NCATS), 2012)",
  "note": "Screen size: about 410,000 compounds; about 6,400 (1.6%) were called active. The inconclusive results got no clear call from the source; some entries with a clear call stand among them for comparison. Calls follow the shape of the dose curve; as a rule, active = well fitted inhibition curve with a large enough effect; inconclusive = small, poorly fitted or top-dose-only effect; inactive = no such curve, though single readings can be large or run the other way. No potency is given beside an inconclusive call; the fits are too rough. Potency is read from the fitted curve at half-maximal effect; tags tell the direction and shape of the fitted curve.",
  "data": [
    {"biological_target": "Glucagon-like peptide 1 receptor (Homo sapiens) (UniProt P43220)", "sequence (P43220 whole entry, looked up)": "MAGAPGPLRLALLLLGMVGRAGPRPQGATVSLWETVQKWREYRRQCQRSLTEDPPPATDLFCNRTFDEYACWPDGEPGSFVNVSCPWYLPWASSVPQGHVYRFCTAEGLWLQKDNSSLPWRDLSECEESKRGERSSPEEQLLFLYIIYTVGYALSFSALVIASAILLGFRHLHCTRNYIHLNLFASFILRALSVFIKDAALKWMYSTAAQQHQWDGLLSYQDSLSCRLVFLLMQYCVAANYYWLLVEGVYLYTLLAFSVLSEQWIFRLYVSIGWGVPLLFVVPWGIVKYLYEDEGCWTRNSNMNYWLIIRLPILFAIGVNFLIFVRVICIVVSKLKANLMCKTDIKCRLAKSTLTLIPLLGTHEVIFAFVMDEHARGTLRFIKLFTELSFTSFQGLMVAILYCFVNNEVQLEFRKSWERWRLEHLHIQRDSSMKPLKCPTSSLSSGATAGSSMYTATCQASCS", "test": "qHTS of GLP-1 Receptor Inverse Agonists (Inhibition Mode); also: nearly all actives have a fitted effect of over 55% in size", "settings": "HEK293 GLP-1R CRE-luciferase, luminescence, 24 h, GLP-1R form is constitutively active; series mostly up to 38.3 µM", "summary_of_the_method": "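Inverse agonism was detected as reduced cAMP-driven luciferase luminescence after 24 h compound treatment. The cells were HEK293 clones expressing constitutively active human GLP-1R with the reporter. Reporter-only and GPR119 cell lines served as counterscreen controls.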", "values": [
      {"smiles": "O=c1c2ccccc2nc(/C=C/c2cccc(Br)c2)n1CCCO", "Potency": "inconclusive [inhibitor, single point]"},
      {"smiles": "CCOC(CNc1ncnc2sc(-c3ccccc3)cc12)OCC", "Potency": "inconclusive [inhibitor, single point]"},
      {"smiles": "CCN(C(=O)c1cccnc1SC)C12CC3CC(CC(C3)C1)C2", "Potency": "inconclusive [inhibitor, single point]"},
      {"smiles": "Cc1ccc(C)c(OCc2cc(C(=O)NC3CCN(Cc4ccccc4)CC3)no2)c1", "Potency": "active: 2.24 µM"},
      {"smiles": "CCCCOc1cccc(C(=O)Nc2sc3c(c2C(=O)OCC)CCCC3)c1", "Potency": "inactive"},
      {"smiles": "C=CCNC(=O)N1CCCC(C(=O)c2cccc(OC(C)C)c2)C1", "note": "(stereo unspecified)", "Potency": "inconclusive [inhibitor, single point]"},
      {"smiles": "COc1ccccc1OCCCCCCN1CCN(C)CC1", "Potency": "inconclusive [inhibitor, partial curve, poor fit]"},
      {"smiles": "CCSc1nc(N)c(C#N)c(-c2ccccc2Cl)c1C#N", "Potency": "inconclusive [inhibitor, single point]"},
      {"smiles": "CCC(C)NCC(O)(c1ccc(Cl)cc1)c1ccc(Cl)cc1", "note": "(stereo unspecified)", "Potency": "inconclusive [inhibitor, partial curve, poor fit]"},
      {"smiles": "Cc1ccc(-c2nn(-c3ccccn3)c(=O)c3ccccc23)cc1C", "Potency": "active: 10 µM"},
      {"smiles": "O=C(NCc1ccccc1)C(c1ccccc1)n1c(-c2ccncc2)nc2ccccc21", "note": "(stereo unspecified)", "Potency": "inactive"},
      {"smiles": "CCOC(=O)[C@@H]1[C@H]2COc3cc(OC)ccc3[C@H]2N2C(=O)N(c3ccc(Br)cc3)C(=O)[C@]12C", "Potency": "inactive"},
      {"smiles": "O=C(Nc1ncccc1O)c1c(O)c2ccccc2[nH]c1=O", "Potency": "inactive"},
      {"smiles": "CCCCN(C=O)c1c(CC)nc2c(OCCOc3ccccc3)cccn12", "Potency": "inconclusive [inhibitor, partial curve, poor fit]"},
      {"smiles": "O=C(O)c1ccc(-c2ccc(OS(=O)(=O)c3ccccc3F)cc2)cc1", "Potency": "inactive"},
      {"smiles": "O=C(O)CSc1ncnc2sc3c(c12)CCC3", "Potency": "inconclusive [inhibitor, partial curve, poor fit]"},
      {"smiles": "COc1ccc(F)cc1S(=O)(=O)NCC(c1ccco1)S(=O)(=O)c1cccs1", "note": "(stereo unspecified)", "Potency": "inactive"},
      {"smiles": "S=c1nc(NCc2cccc(Cl)c2)c2ccccc2[nH]1", "Potency": "inactive"},
      {"smiles": "O=C(CSc1cccc2cccnc12)N/N=C/c1ccc(O)cc1", "Potency": "inactive"},
      {"smiles": "O=C(NC1c2ccccc2-c2ccccc21)N1CCCCC1", "Potency": "inconclusive [inhibitor, single point]"},
      {"smiles": "CC(C)(C)c1ccc(C(=O)Nc2ccc(Cl)cc2)cc1", "Potency": "inactive"},
      {"smiles": "c1csc(-c2cn3ccc4ccccc4c3n2)c1", "Potency": "inconclusive [inhibitor, single point]"},
      {"smiles": "Cc1cc(NC(=O)CCSc2ccccc2)ccc1Br", "Potency": "inconclusive [inhibitor, single point]"},
      {"smiles": "Cc1cccc(CCNC(=O)c2oc3c(C)c(C)ccc3c2C)n1", "Potency": "inconclusive [inhibitor, partial curve, poor fit]"},
      {"smiles": "CCOC(=O)c1cccnc1SCC(=O)N(CC)c1cccc(C)c1", "Potency": "inconclusive [inhibitor, single point]"},
      {"smiles": "N#CC1=C(N)NC(SCC(=O)c2ccc(Br)cc2)=C(C#N)C12CCCCC2", "Potency": "inconclusive [inhibitor, partial curve, poor fit]"},
      {"smiles": "Cc1[nH]c2ccccc2c1/C=N/NC(=O)c1cccc(Br)c1", "Potency": "inconclusive [inhibitor, partial curve, poor fit]"},
      {"smiles": "COCCn1nnnc1C(c1ccccn1)N1CCN(c2cc(Cl)ccc2C)CC1", "note": "(stereo unspecified)", "Potency": "inconclusive [inhibitor, partial curve, poor fit]"},
      {"smiles": "CCOCCCNC(=O)c1c[nH]c2ccc(S(=O)(=O)N(C)c3ccc(Cl)cc3F)cc2c1=O", "Potency": "inactive"},
      {"smiles": "CCCS(=O)(=O)c1nc(S(=O)(=O)c2ccc(C)cc2)c(N2CC(C)OC(C)C2)s1", "note": "(stereo unspecified)", "Potency": "inconclusive [inhibitor, single point]"},
      {"smiles": "Cc1ccc2nc(-c3ccc(Cl)cc3)c(Cc3cccc(Cl)c3)n2c1", "Potency": "inconclusive [inhibitor, single point]"},
      {"smiles": "Cc1ccc(C)c(N2CCN(C(=O)CCc3nnc4n(C)c(=O)c5ccccc5n34)CC2)c1", "Potency": "inactive"},
      {"smiles": "CN1CCN(C(CNC(=O)C(=O)Nc2ccc(Cl)cc2)c2cccnc2)CC1", "note": "(stereo unspecified)", "Potency": "inactive"},
      {"smiles": "CCC(c1nnnn1Cc1cccs1)N1CCN(c2nc3ccccc3s2)CC1", "note": "(stereo unspecified)", "Potency": "inconclusive [inhibitor, partial curve, poor fit]"},
      {"smiles": "CC1(C(=O)Nc2ccc(Cl)c(C(F)(F)F)c2)Cc2c(-c3ccc(C(N)=O)cc3)ccnc2O1", "note": "(stereo unspecified)", "Potency": "inconclusive [inhibitor, single point]"},
      {"smiles": "Cc1c(C(=O)OC(C)C)sc(NC(=O)C2c3ccccc3Oc3ccccc32)c1C(=O)OC(C)C", "Potency": "active: 8.91 µM"},
      {"smiles": "CCOC(=O)C1(CCOc2ccccc2)CCN(CC2CC2)CC1", "Potency": "inactive"},
      {"smiles": "Cc1ccc(Sc2c(C)nn(C(=O)c3ccc(Cl)cc3)c2C)cc1", "Potency": "inactive"},
      {"smiles": "CC1CC(=O)C2=C(C1)Nc1ccccc1SC2c1ccc(F)cc1", "note": "(stereo unspecified)", "Potency": "inconclusive [inhibitor, single point]"},
      {"smiles": "Cc1cccc(/C=N/n2c(-c3cc(-c4ccccc4)n[nH]3)n[nH]c2=S)c1", "Potency": "inactive"},
      {"smiles": "NC(=S)NN=Cc1nccc2c(N)cccc12", "Potency": "inconclusive [inhibitor, partial curve, poor fit]"},
      {"smiles": "COc1ccc(-c2nc(NC(=O)c3[nH]c(C)c(C(C)=O)c3C)sc2C)cc1", "Potency": "active: 12.6 µM"},
      {"smiles": "CCOC(=O)c1cccc(NS(=O)(=O)c2cc(-c3cnc(C4CC4)o3)ccc2C)c1", "Potency": "inconclusive [inhibitor, full curve, poor fit]"},
      {"smiles": "CSc1ccccc1C(=O)NC1CCCN(c2ccc(C(F)(F)F)cn2)C1", "note": "(stereo unspecified)", "Potency": "inconclusive [inhibitor, single point]"},
      {"smiles": "CCN(CC)c1nc2ccccc2nc1-n1nc(C)cc1C", "Potency": "inconclusive [inhibitor, single point]"},
      {"smiles": "O=C(NCc1cccnc1)c1nc(-c2ccc(C(F)(F)F)cc2)no1", "Potency": "inactive"}
    ]}
  ]
}
